{"source": "the supplement of paper PMC12217912", "parents": {"B1": {"name": "TEV protease; numbered along this chain (parent)", "chain": "MGESLFKGPRDYNPISSSICHLTNESDGHTTSLYGIGFGPFIITNKHLFRRNNGTLVVQSLHGVFKVKDTTTLQQHLVDGRDMIIIRMPKDFPPFPQKLKFREPQREERICLVTTNFQTKSMSSMVSDTSCTFPSGDGIFWKHWIQTKDGQCGSPLVSTRDGFIVGIHSASNFTNTNNYFTSVPKNFMELLTNQEAQQWVSGWRLNADSVLWGGHKVFMVKPEEPFQPVKEATQL"}}, "note": "The list shows a part of the results. Sequences were assembled here from the parent chain. Values near 0.05 are background.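 Note: Bxb1 expression induced with 0.2% (w/v) L-rhamnose at OD600 near 0.5, cultures sampled hourly, flipped fraction per protease–substrate barcode pair counted by paired-end Illumina sequencing.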", "data": [{"variants_of": "B1", "assay": "raw area under fraction-flipped curve 0-4 h after induction (AUC4h, not background-subtracted), DNA-recorder readout of cleavage of the substrate (dimensionless); higher = more cleavage of the substrate by the protease variant", "conditions": "temperature: 34 °C; time window: 0-4 h after rhamnose induction", "experimental": "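In vivo DNA recorder in E. coli TOP10(DE3) ΔrhaA at 34 °C. Each TEVp single-site mutant (parent TEVp 0) is paired with a single-site variant of the 7-mer TEVs (canonical ENLYFQ|S). The substrate sits between flexible linkers in a Bxb1-sfGFP-TEVs-SsrA fusion, so cleavage stabilises Bxb1 and speeds flipping of a recombination array, read by NGS. The value is the raw area under the fraction-flipped curve over 0-4 h after rhamnose induction (AUC4h), with ≥20 reads per time point. It is not background-subtracted; inactive controls average about 0.047.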", "values": [{"variant": "MGESLFKGPRDYNPISSSICHLTNESDGHTTSLYGIGFGPFIITNKHLFRRNNGTLVVQSLHGVFKVKDTTTLQQHLVDGRDMIIIRMPKDFPPFPQKLKFREPQREERICLVTTNFQTKSMSSMVSDTSCTFPSGDGIFWKHWIQTKDGQCGSPLVSTRDGFIVGIHSASNFVNTNNYFTSVPKNFMELLTNQEAQQWVSGWRLNADSVLWGGHKVFMVKPEEPFQPVKEATQL", "note": "[T174V]", "area with substrate ECLYFQS": 0.0841, "area with substrate EGLYFQS": 0.0642, "area with substrate EILYFQS": 0.0922, "area with substrate ELLYFQS": 0.0511, "area with substrate EPLYFQS": 0.0897, "area with substrate EQLYFQS": 0.085, "area with substrate ESLYFQS": 0.0672, "area with substrate ETLYFQS": 0.107, "area with substrate EWLYFQS": 0.0831}, {"variant": "MGESLFKGPRDYNPISSSICHLTNESDGHTTSLYGIGFGPFIITNKHLFRRNNGTLVVQSLHGVFKVKDTTTLQQHLVDGRDMIIIRMPKDFPPFPQKLKFREPQREERICLVTTNFQTKSMSSMVSDTSCTFPSGDGIFWKHWIQTKDGQCGSPLVSTRDGFIVGIHSASNFTWTNNYFTSVPKNFMELLTNQEAQQWVSGWRLNADSVLWGGHKVFMVKPEEPFQPVKEATQL", "note": "[N175W]", "area with substrate ECLYFQS": 0.0671, "area with substrate EGLYFQS": 0.0603, "area with substrate EILYFQS": 0.0584, "area with substrate EMLYFQS": 0.0705, "area with substrate EVLYFQS": 0.0867}, {"variant": "MGESLFKGPRDYNPISSSICHLTNESDGHTTSLYGIGFGPFIITNKHLFRRNNGTLVVQSLHGVFKVKDTTTLQQHLVDGRDMIIIRMPKDFPPFPQKLKFREPQREERICLVTTNFQTKSMSSMVSDTSCTFPSGDGIFWKHWIQTKDGQCGSPLVSTRDGFIVGIHSASNFTNTNNWFTSVPKNFMELLTNQEAQQWVSGWRLNADSVLWGGHKVFMVKPEEPFQPVKEATQL", "note": "[Y179W]", "area with substrate ECLYFQS": 0.0541, "area with substrate EILYFQS": 0.0672, "area with substrate ESLYFQS": 0.0701, "area with substrate ETLYFQS": 0.0605, "area with substrate EVLYFQS": 0.0513}, {"variant": "MGESLFKGPRDYNPISSSICHLTNESDGHTTSLYGIGFGPFIITNKHLFRRNNGTLVVQSLHGVFKVKDTTTLQQHLVDGRDMIIIRMPKDFPPFPQKLKFREPQREERICLVTTNFQTKSMSSMVSDTSCTFPSGDGIFWKHWIQTKDGQCGSPLVSTRDGFIVGIHSASNFTNTNNYQTSVPKNFMELLTNQEAQQWVSGWRLNADSVLWGGHKVFMVKPEEPFQPVKEATQL", "note": "[F180Q]", "area with substrate ECLYFQS": 0.0714, "area with substrate ELLYFQS": 0.0527, "area with substrate ESLYFQS": 0.0659}, {"variant": "MGESLFKGPRDYNPISSSICHLTNESDGHTTSLYGIGFGPFIITNKHLFRRNNGTLVVQSLHGVFKVKDTTTLQQHLVDGRDMIIIRMPKDFPPFPQKLKFREPQREERICLVTTNFQTKSMSSMVSDTSCTFPSGDGIFWKHWIQTKDGQCGSPLVSTRDGFIVGIHSASNFTNTNNYFTSVPKNFMSLLTNQEAQQWVSGWRLNADSVLWGGHKVFMVKPEEPFQPVKEATQL", "note": "[E189S]", "area with substrate ECLYFQS": 0.0927, "area with substrate EHLYFQS": 0.0963, "area with substrate EILYFQS": 0.126, "area with substrate EPLYFQS": 0.091, "area with substrate EQLYFQS": 0.0991, "area with substrate ESLYFQS": 0.0822, "area with substrate EVLYFQS": 0.0683}, {"variant": "MGESLFKGPRDYNPISSSICHLTNESDGHTTSLYGIGFGPFIITNKHLFRRNNGTLVVQSLHGVFKVKDTTTLQQHLVDGRDMIIIRMPKDFPPFPQKLKFREPQREERICLVTTNFQTKSMSSMVSDTSCTFPSGDGIFWKHWIQTKDGQCGSPLVSTRDGFIVGIHSASNFTNTNNYFTSVPKNFMECLTNQEAQQWVSGWRLNADSVLWGGHKVFMVKPEEPFQPVKEATQL", "note": "[L190C]", "area with substrate ECLYFQS": 0.1, "area with substrate EGLYFQS": 0.0949, "area with substrate EHLYFQS": 0.0907, "area with substrate EPLYFQS": 0.0849, "area with substrate EQLYFQS": 0.109, "area with substrate ERLYFQS": 0.0934, "area with substrate ESLYFQS": 0.112, "area with substrate EVLYFQS": 0.0172, "area with substrate EWLYFQS": 0.0514}, {"variant": "MGESLFKGPRDYNPISSSICHLTNESDGHTTSLYGIGFGPFIITNKHLFRRNNGTLVVQSLHGVFKVKDTTTLQQHLVDGRDMIIIRMPKDFPPFPQKLKFREPQREERICLVTTNFQTKSMSSMVSDTSCTFPSGDGIFWKHWIQTKDGQCGSPLVSTRDGFIVGIHSASNFTNTNNYFTSVPKNFMESLTNQEAQQWVSGWRLNADSVLWGGHKVFMVKPEEPFQPVKEATQL", "note": "[L190S]", "area with substrate ECLYFQS": 0.0595, "area with substrate EILYFQS": 0.0587, "area with substrate EKLYFQS": 0.0947, "area with substrate ELLYFQS": 0.0788, "area with substrate ERLYFQS": 0.0647, "area with substrate ESLYFQS": 0.106, "area with substrate ETLYFQS": 0.11, "area with substrate EVLYFQS": 0.0765, "area with substrate EWLYFQS": 0.102, "area with substrate EYLYFQS": 0.0883}, {"variant": "MGESLFKGPRDYNPISSSICHLTNESDGHTTSLYGIGFGPFIITNKHLFRRNNGTLVVQSLHGVFKVKDTTTLQQHLVDGRDMIIIRMPKDFPPFPQKLKFREPQREERICLVTTNFQTKSMSSMVSDTSCTFPSGDGIFWKHWIQTKDGQCGSPLVSTRDGFIVGIHSASNFTNTNNYFTSVPKNFMELLTRQEAQQWVSGWRLNADSVLWGGHKVFMVKPEEPFQPVKEATQL", "note": "[N193R]", "area with substrate ECLYFQS": 0.0856, "area with substrate EFLYFQS": 0.0737, "area with substrate EKLYFQS": 0.109, "area with substrate EMLYFQS": 0.0982, "area with substrate EPLYFQS": 0.0967, "area with substrate EQLYFQS": 0.1, "area with substrate ERLYFQS": 0.0889}, {"variant": "MGESLFKGPRDYNPISSSICHLTNESDGHTTSLYGIGFGPFIITNKHLFRRNNGTLVVQSLHGVFKVKDTTTLQQHLVDGRDMIIIRMPKDFPPFPQKLKFREPQREERICLVTTNFQTKSMSSMVSDTSCTFPSGDGIFWKHWIQTKDGQCGSPLVSTRDGFIVGIHSASNFTNTNNYFTSVPKNFMELLTNQEAQQVVSGWRLNADSVLWGGHKVFMVKPEEPFQPVKEATQL", "note": "[W199V]", "area with substrate ECLYFQS": 0.113, "area with substrate EGLYFQS": 0.0924, "area with substrate EHLYFQS": 0.0708, "area with substrate ELLYFQS": 0.0532, "area with substrate EMLYFQS": 0.0696, "area with substrate EQLYFQS": 0.0653, "area with substrate ERLYFQS": 0.0619, "area with substrate ESLYFQS": 0.0718, "area with substrate EVLYFQS": 0.0595, "area with substrate EWLYFQS": 0.0582, "area with substrate EYLYFQS": 0.0605}, {"variant": "MGESLFKGPRDYNPISSSICHLTNESDGHTTSLYGIGFGPFIITNKHLFRRNNGTLVVQSLHGVFKVKDTTTLQQHLVDGRDMIIIRMPKDFPPFPQKLKFREPQREERICLVTTNFQTKSMSSMVSDTSCTFPSGDGIFWKHWIQTKDGQCGSPLVSTRDGFIVGIHSASNFTNTNNYFTSVPKNFMELLTNQEAQQWVYGWRLNADSVLWGGHKVFMVKPEEPFQPVKEATQL", "note": "[S201Y]", "area with substrate ECLYFQS": 0.0873, "area with substrate EGLYFQS": 0.0807, "area with substrate EHLYFQS": 0.0888, "area with substrate EKLYFQS": 0.105, "area with substrate EMLYFQS": 0.153, "area with substrate ERLYFQS": 0.0858, "area with substrate ESLYFQS": 0.158, "area with substrate EVLYFQS": 0.0909, "area with substrate EWLYFQS": 0.0845, "area with substrate EYLYFQS": 0.066}, {"variant": "MGESLFKGPRDYNPISSSICHLTNESDGHTTSLYGIGFGPFIITNKHLFRRNNGTLVVQSLHGVFKVKDTTTLQQHLVDGRDMIIIRMPKDFPPFPQKLKFREPQREERICLVTTNFQTKSMSSMVSDTSCTFPSGDGIFWKHWIQTKDGQCGSPLVSTRDGFIVGIHSASNFTNTNNYFTSVPKNFMELLTNQEAQQWVSGWRANADSVLWGGHKVFMVKPEEPFQPVKEATQL", "note": "[L205A]", "area with substrate ECLYFQS": 0.0629, "area with substrate EQLYFQS": 0.0762, "area with substrate ERLYFQS": 0.0751, "area with substrate ESLYFQS": 0.0885, "area with substrate ETLYFQS": 0.0704, "area with substrate EVLYFQS": 0.082, "area with substrate EYLYFQS": 0.0861}]}]}
